# Measurements from publication PMC6919601, “Identification of Plasmodium dipeptidyl aminopeptidase allosteric inhibitors by high throughput screening” (PLoS ONE, 2019).
# Several values for one entry are separate records, joined by “and”; a condition that tells them apart may be missing. Equal values may be shown once. About 230 (0.21%) of roughly 110,000 compounds showed an effect of 50% or more. The list shows a part of the results.
# Biological target: DPAP1 (Plasmodium falciparum, UniProt Q8IIJ9)
# Sequence (Q8IIJ9 whole entry, looked up): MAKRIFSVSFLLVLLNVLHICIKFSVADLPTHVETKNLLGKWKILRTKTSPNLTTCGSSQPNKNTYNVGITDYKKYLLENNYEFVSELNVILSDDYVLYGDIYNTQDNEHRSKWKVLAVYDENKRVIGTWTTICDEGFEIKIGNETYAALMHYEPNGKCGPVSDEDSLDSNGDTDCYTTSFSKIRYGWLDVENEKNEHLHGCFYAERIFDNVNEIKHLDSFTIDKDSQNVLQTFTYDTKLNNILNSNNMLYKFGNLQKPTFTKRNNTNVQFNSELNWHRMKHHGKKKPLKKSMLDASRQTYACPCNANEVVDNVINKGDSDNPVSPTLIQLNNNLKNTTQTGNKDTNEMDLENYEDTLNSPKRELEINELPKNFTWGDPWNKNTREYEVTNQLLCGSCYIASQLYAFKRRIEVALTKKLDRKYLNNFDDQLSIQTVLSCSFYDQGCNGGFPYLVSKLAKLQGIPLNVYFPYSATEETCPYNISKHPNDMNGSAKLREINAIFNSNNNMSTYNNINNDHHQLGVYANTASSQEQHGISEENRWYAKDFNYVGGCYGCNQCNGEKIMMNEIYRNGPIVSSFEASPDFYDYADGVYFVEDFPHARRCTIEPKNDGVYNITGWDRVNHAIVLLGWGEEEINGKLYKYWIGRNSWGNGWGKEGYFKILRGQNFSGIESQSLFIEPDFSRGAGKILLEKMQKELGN
# Test: primary screen, percent inhibition; read by cleavage of a fluorogenic dipeptide substrate; higher = more effect of the substance
# Design: species or system P. falciparum D10 trophozoite lysates; single well
# 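Note: 30 min substrate incubation versus DMSO and 10 µM JCP410 controls.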
row,Compound,% Inhibition @ 10 uM
1,O=C(Cn1c(=O)n(Cc2ccco2)c(=O)c2sc3ccccc3c21)NCc1ccc(Cl)cc1,-2.41%
2,CCS(=O)(=O)C1=NSC2=NC(=O)/C(=C\c3ccc(O)c(O)c3)C(=N)N21,-5.27%
3,CCCN(CCC)CC/N=c1\c(O)c(O)\c1=N/C1CCN(C(=O)OCC)CC1,-1.44%
4,Cc1ccc(S(=O)(=O)NC2=NCN(c3ccc(Cl)cc3)CN2)cc1,-1.38%
5,CC1(C)CC(=O)c2cnc(-c3ccncc3)nc2C1,-4.49%
6,CC(NC(=O)c1coc2nc3ccccc3nc12)c1ccccc1 (stereo not drawn),-2.72%
7,CCOc1ccc(C(C)NC(=O)c2ccccc2Cl)cc1OCC (stereo not drawn),5.39%
8,COc1cccc(C(=O)Nc2ccc(C(=O)NCC3CCCO3)cc2)c1 (stereo not drawn),4.11%
9,Cc1cc(Cl)c(C(=O)NC(C)C2CC2)cc1Cl (stereo not drawn),2.59%
10,CC(C)C(NC(=O)c1ccc(CN2CCOCC2)cc1)C(C)C,-6.36%
11,Cn1ncc(Br)c1C(=O)N1CCCCC1,0.774%
12,Cc1cccc(NC(=O)C2CCCN(c3ncnc4onc(C)c34)C2)n1 (stereo not drawn),4.67%
13,O=S(=O)(Nc1nc2ccccc2nc1NCCc1ccccc1)c1ccccc1,-8.29%
14,COc1ccc(S(=O)(=O)N(C)CC(=O)N2CCC(C(N)=O)CC2)cc1,-8.92%
15,CC(=O)c1ccc2sc3ccc(C(C)=O)cc3c2c1,-6.71%
16,OC(c1ccccc1)(c1ccccc1)C1CCCN1Cc1ccccc1 (stereo not drawn),-4.75%
17,OC(c1ccncc1)C(O)c1ccncc1 (stereo not drawn),-0.415%
18,O=c1oc2c(Br)cc(Br)cc2cc1-c1nc(-c2ccccc2)cs1,0.98%
19,CCN(Cc1ccccc1)C(=O)CSc1nc2cn(CC)nc2c(=O)n1Cc1ccc(C)cc1,-8.26%
20,CCOc1ccccc1NC(=O)c1ccc(OC)cc1OC,-4.43%
21,CCN(C/C=C/c1ccccc1)CCN(C)C,-4.04%
22,COc1c(Cl)cc(Cl)cc1/C=C1\N=C(c2ccccc2)OC1=O,-6.74%
23,Cc1ccc(C(=O)Nc2sc3c(c2C(=O)N(C)C)CCC(C)C3)cc1 (stereo not drawn),-0.82%
24,N#C/C(=C\Nc1cccc(F)c1)c1nc(-c2ccccc2)cs1,-3.49%
25,CN(C)CCN(C)Cc1cccc(F)c1,-1.62%
26,CCN(CCN(C)C)Cc1ccccc1F,-0.0494%
27,N#Cc1ccc(-c2cccs2)nc1O,-3.32%

row,Compound,% Inhibition @ 10 uM
1,CCCCNC(=O)c1ccc(CSCc2ccc(Cl)cc2)o1,5.23%
2,COCc1cc(C)nc2sc3c(=O)n(CCc4ccccc4)nnc3c12,-0.808%
3,CCCn1c(N2CCCCCC2)nc2c1c(=O)[nH]c(=O)n2C,2.91%
4,CCOC(=O)c1[nH]c(C)c(C)c1O,3.3%
5,CC1C2CC(C(CN(C)C)/C2=N/O)C1(C)C (stereo not drawn),0.937% and -5.62%
6,COc1ccccc1C(=O)n1nc(-c2ccc(Cl)cc2)nc1NCc1ccco1,-2.91%
7,O=C(C1CCCN1C(=O)OCc1ccccc1)N1CCCCCC1 (stereo not drawn),3.86%
8,N#Cc1nc(/C=C/c2cccs2)oc1N1CCCC1,-3.71%
9,CC1CCN(Cn2c(=S)oc3ccccc32)CC1,12.8%
10,COc1ccc(/C=C(\C)C(=O)c2c(C)cc(C)nc2O)cc1,2.91%
11,CCOc1ccc2nc(N(CCN(C)C)C(=O)Cc3ccccc3)sc2c1,-5.01%
12,C=CCNC(=O)c1oc2ccc(S(=O)(=O)N(CC)CC)cc2c1C,8.2%
13,Cc1ccc(S(=O)(=O)c2ccc(C)c(S(N)(=O)=O)c2)cc1S(N)(=O)=O,-3.03%
14,CCC[C@@H](/C=C/S(=O)(=O)c1ccccc1)NC(=O)CCc1c(F)cccc1F,2.87%
15,COc1ccccc1N(CC(=O)Nc1ccccc1C(F)(F)F)S(=O)(=O)c1ccccc1,2.65%
16,CC1CCCC(NC(=O)CC/N=c2/c(N3CCCC3)c(O)c2=O)C1C (stereo not drawn),-3.74%
17,O=C(NCCc1csc2nc(-c3ccccc3)nn12)c1ccccc1Br,-1.49%
18,CCC1CCCN1Cn1cnc2c3cc(Cl)ccc3nc-2c1O (stereo not drawn),-1.74%
19,CN(C(=O)C1c2ccccc2C(=O)N2CCc3ccccc3C12)C1CCCCC1 (stereo not drawn),-1.29%
20,Cc1ccc(N2C(=O)NC(=O)/C(=C/Nc3cccc(Cl)c3)C2=O)cc1,-2.8%
21,c1ccc(-c2oc3ncn4ncnc4c3c2-c2ccccc2)cc1,-0.0678%
22,COCCCNC(=O)c1cccs1,-3.04%
23,CN1CCCN(Cc2c[nH]c3ccccc23)CC1,-3.56%
24,CCCN(CCC)C(=O)C1CCC(C)(C(=O)O)C1(C)C (stereo not drawn),6.86%
25,NC(=O)C1CCN(Cc2cccc(C(F)(F)F)c2)CC1,3.48%
26,COc1cccc(CNC(=O)CNC(=S)N(Cc2ccccc2)Cc2cccnc2)c1,-0.406%
27,Cc1ccc(NC(=O)c2ccc(C)c([N+](=O)[O-])c2)cc1Cl,2.34%

row,Compound,% Inhibition @ 10 uM
1,CC(=O)Nc1cc(C(N)=O)cc(C(N)=O)c1,-5.11%
2,COc1ccc(-c2cc(C)no2)cc1S(=O)(=O)N1CCN(C2CCCCC2)CC1,-2.44%
3,CCN1CCCC1CNS(=O)(=O)c1ccc(-c2cc(C(F)(F)F)no2)s1 (stereo not drawn),1.22%
4,N#CCNC(=O)[C@H](CC1CCCCC1)NC(=O)c1cccc(Br)c1,-1.83%
5,CN1CCN(C2CC(=O)N(c3cccc(Br)c3)C2=O)CC1 (stereo not drawn),1.35%
6,COc1ccccc1-c1c(C)nn2c(-c3ccccc3)cc(C)nc12,2.73%
7,Cc1ccc2c(c1)n1cnnc1c1nncn21,0.974%
8,Cn1nnnc1SCCNCc1ccccc1C(F)(F)F,-3.49%
9,Cc1ccc(C)c(Cn2ncn3c(cc4cc(C)ccc43)c2=O)c1,-5.63%
10,CCOCCCNc1oc(/C=C/c2ccc(OCC)cc2)nc1C#N,5.68%
11,CCCCCCN1C(=O)C(=O)c2ccccc21,0.121%
12,CCOC(=O)N1CCC(NC(=O)c2cccnc2SC)CC1,0.238%
13,COc1ccc(N2CCN(Cc3sccc3C)CC2)cc1,-6.47%
14,COc1ccc(-c2nc(CSCC(=O)NC(C)CCc3ccccc3)c(C)o2)cc1 (stereo not drawn),0.475%
15,O=C(Nc1ccc(Cl)cc1)NC1CCCC1,-1.29%
16,CCOc1ccccc1CNc1ncc(-c2cccc(Cl)c2)n1C,-4.78%
17,CC1CCc2c(sc(NC(=O)CCC(=O)O)c2C#N)C1 (stereo not drawn),2.67%
18,CCOc1ccc(/C=C2\NC(=O)NC2=O)c2ccccc12,4.18%
19,CC(=O)C1=C(C)N=C(S)NC1c1ccco1 (stereo not drawn),0.962%
20,Cc1nc(C)c(-c2csc(Nc3ccc(Br)cc3)n2)s1,-0.546% and 1.35%
21,Nc1nonc1-n1cc(-c2ccccc2)nn1,-7.35%
22,O=[N+]([O-])c1ccccc1CN1CCN(c2ccccc2F)CC1,-0.828%
23,O=C(NCc1ccccc1)C1CCCN(c2nc3ccccc3n3cccc23)C1 (stereo not drawn),5.3%
24,CCC(CC)C(=O)Nc1ccccc1C(=O)O,-3.76%
25,Cc1nc2ccc(S(=O)(=O)NC(CC(C)C)C(=O)NCc3ccccn3)cc2s1 (stereo not drawn),3.75%
26,Cc1[nH]c2ccccc2c1CCn1c(N)cc(=O)[nH]c1=O,0.503%
27,COc1cccc(-c2nc3sc(-c4cccc(OC)c4)nc3s2)c1,2.57%

row,Compound,% Inhibition @ 10 uM
1,CCOc1ccc(CCNC(=O)c2sc3nc4n(c(=O)c3c2C)CCCCC4)cc1,2.89%
2,CC(O)CN(Cc1ccc(F)c(Br)c1)CC(C)O (stereo not drawn),-1.21%
3,C=CCN1C(=S)NC2CC1(C)Oc1c(OC)cccc12 (stereo not drawn),-2.01%
4,CN(C(=O)C(CC1CCCCC1)C(=O)NCC#N)C(C)(C)C (stereo not drawn),-5.21%
5,COc1cc(NC(=O)c2ccc(Cl)cc2)c(Cl)cc1NC(=O)c1cccnc1,0.408%
6,CC(C)N1CCN(c2ccc(C(=O)N3CCCC3)cn2)CC1,1.94%
7,Cc1ccc(/C=C2\C(=O)C3CCN2CC3)cc1,-3.23%
8,CC(C)NS(=O)(=O)c1ccc(N2CCN(C)CC2)nc1,-9.08%
9,COc1ccc2ccccc2c1C1C(C#N)=C(N)Oc2[nH]nc(C(C)(C)C)c21 (stereo not drawn),2.68%
10,Cc1nn(CCCC(=O)NCCCOC(C)C)c(=O)c2cc3sccc3n12,4.95%
11,CC(=O)C1=C(C)N=C2C(=C(O)c3ccccc32)C1c1ccc(Br)cc1 (stereo not drawn),1.57%
12,Cc1cccc(Cc2c(C)nc3nc(SCC(=O)N4CCCC4)nn3c2C)c1,-2.04%
13,CCSc1nc(O)c2c(n1)-c1ccccc1CC21CCCC1,-0.436%
14,CCOC(=O)Nc1sc(C(=O)OCC)c(C)c1C(=O)OCC,16.1%
15,O=C(Cn1ccc2ccccc2c1=O)NCc1ccc2c(c1)OCO2,-1.51%
16,CC(=O)Nc1ccc(N2C(=O)NC(NC(=O)c3ccccc3)(C(F)(F)F)C2=O)cc1 (stereo not drawn),1.61%
17,CC(C)CCNC(=O)C1CCCN1S(=O)(=O)c1cccc2nsnc12 (stereo not drawn),1.26%
18,COc1cc2ccccc2cc1C(=O)NCCOC12CC3CC(CC(C3)C1)C2,5.38%
19,O=C(O)c1ccc(NC(=O)c2ccc([N+](=O)[O-])cc2)cc1,-6.82%
20,O=c1c(Cc2cc(Cl)cc(Cl)c2O)c(O)nc2n1CCCS2,4.41%
21,CCn1nccc1C(=O)Nc1ccc(C)c(F)c1,1.19%
22,Nc1nonc1-c1nc2ccccc2n1CC(=O)NCc1ccccc1,-3.63%
23,CN(C)CCCN(CCCN(C)C)Cc1ccc(Br)cc1,-3.57%
24,CC(C)=CCCC1(C)OC(=O)N(CCNC(=O)c2ccnn2C)C1(C)O (stereo not drawn),2.36%
